Laboratory results: PubChem BioAssay (NCATS)
This is one part of the list. Further columns of the screen follow, without active or inactive calls. The note in brackets gives the kind of curve behind each potency; many fits are weak.

Assay: qHTS drug screen for cell cycle checkpoint inhibitors in PARPi-resistant BRCA-mutant ovarian cancer cell lines. (AID 1963452)
Settings: PEO1/OlaR viability, CellTiter-Glo luminescence, 96 h
Procedure, shortened: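 PEO1, PEO4 and PEO1/OlaR ovarian cancer cells, 600 per well, exposed 96 h at 37C to a dilution series. Viability read by CellTiter-Glo luminescence, normalized to DMSO and empty wells; activity summarized as Z-AUC.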

[1] = measured here: PEO1 parental viability
Tags describe the fitted curve by direction and shape.

Row | Compound | AC50 [1] | AC50 (measured here: PEO4 viability)
1 | CN1CCN(c2ccc(OC(F)(F)F)c(Nc3ncc4c(n3)-c3c(c(C(N)=O)nn3CCO)CC4)c2)CC1 | 0.049 µM [falling, full curve] | 0.0616 µM [falling, full curve]
2 | NC(=O)C1=C(O)[C@@]2(O)C(=O)C3=C(O)c4c(O)cccc4C[C@H]3C[C@H]2CC1=O | 12.3 µM [falling, partial curve, poor fit] | 3.09 µM [falling, full curve]
3 | O=C(NO)c1ccc(C2=Nc3ccccc3Oc3ccccc32)cc1 | 11 µM [falling, partial curve] | 9.77 µM [falling, partial curve]
4 | CCN(C)S(=O)(=O)Nc1ccc(F)c(C(=O)c2c[nH]c3ncc(-c4cnc(C5CC5)nc4)cc23)c1F | 13.8 µM [falling, single point] | 24.5 µM [falling, single point]
5 | Cc1ccc(NC(=O)c2ccc3c(c2)OCCO3)cc1NC(=O)c1ccc2nc(OCCN3CCCC3)ccc2c1 | 0.169 µM [falling, full curve] | 0.12 µM [falling, full curve]
6 | Cc1cc2cc(Oc3ccnc(Nc4cccc(CS(=O)(=O)NCCN(C)C)c4)n3)ccc2[nH]1 | 15.5 µM [falling, single point] | 17.4 µM [falling, single point]
7 | Cc1nc2ccc(-n3ncc(C(=O)c4cc5ccccc5[nH]4)c3N)cc2[nH]1 | 6.16 µM [falling, partial curve] | 12.3 µM [falling, partial curve, poor fit]
8 | COc1cc(N2CCN(C)CC2)ccc1Nc1ncc2c(n1)N(C)c1ccccc1C(=O)N2C | 19.5 µM [falling, partial curve] | 6.92 µM [falling, partial curve]
9 | CC(=O)c1cc2c(o1)C(=O)c1ccccc1C2=O | 1.23 µM [falling, full curve] | 0.549 µM [falling, full curve]
10 | CCn1c(=O)c(-c2ccn[nH]2)cc2c(C)nc(N)nc21 | 15.5 µM [falling, partial curve] | 8.71 µM [falling, partial curve]
11 | Nc1nc(Cl)nc2c1ncn2[C@@H]1O[C@H](CO)[C@@H](O)[C@@H]1F | 0.245 µM [falling, full curve] | 0.347 µM [falling, full curve]
12 | CC[C@@]1(O)C(=O)OCc2c1cc1n(c2=O)Cc2c-1nc1cc(F)c(C)c3c1c2[C@@H](N)CC3 | 0.0098 µM [falling, full curve] | 0.0309 µM [falling, full curve]
13 | CCN1CCN(Cc2ccc(NC(=O)c3ccc(C)c(NC(=O)c4cncc(-c5cccs5)c4)c3)cc2C(F)(F)F)CC1 | 0.616 µM [falling, full curve] | 1.1 µM [falling, full curve]
14 | Cc1[nH]c2ccc(F)cc2c1-c1nc2c3cccnc3c3ncccc3c2[nH]1 | 0.398 µM [falling, full curve] | 0.282 µM [falling, full curve]
15 | Cc1cc(C(=O)Nc2cc(Nc3ccc4c(/C=C/c5ccccn5)n[nH]c4c3)ccc2F)n(C)n1 | 19.5 µM [falling, partial curve, poor fit] | 15.5 µM [falling, partial curve]
16 | COc1cc(N2CCC(N(C)C)CC2)ccc1Nc1ncc(Cl)c(Nc2ccccc2P(C)(C)=O)n1 | 0.436 µM [falling, full curve] | 0.275 µM [falling, full curve]
17 | O=C(Nc1ccc(-c2ccnc(Nc3ccc(N4CCOCC4)cc3)n2)cc1)[C@@H]1CCCN1 | 12.3 µM [falling, single point] | 24.5 µM [falling, single point]
18 | CCC(CC)C(c1ccc(Nc2nc3ccccc3s2)cc1)n1cncn1 (centres undefined) | 15.5 µM [falling, partial curve] | 27.5 µM [falling, single point]
19 | Cc1c(C(=O)N2CCOc3ccc(-c4ccc(N)nc4)cc3C2)ccc(S(C)(=O)=O)c1F | 13.8 µM [falling, partial curve, poor fit] | 8.71 µM [falling, partial curve]
20 | COc1cc2nc(-c3cc(F)ccc3O)nc(N[C@@H]3CNC[C@H]3C(C)(C)O)c2cc1OC | 6.16 µM [falling, partial curve] | 6.92 µM [falling, partial curve]
21 | Cc1c[nH]c2nc(Nc3ccc(N4CCN(C)CC4)c(F)c3)nc(-c3cccc(CC#N)c3)c12 | 1.74 µM [falling, full curve] | 3.09 µM [falling, full curve]

Row | Compound | AC50 [1] | AC50 (measured here: PEO4 viability)
22 | C=C1C(=O)O[C@@H]2[C@H]3C(C)=CC[C@@]34O[C@@]4(C)CC[C@@H]12 | 24.5 µM [falling, single point] | 15.5 µM [falling, single point]
23 | CNC(=O)c1ccccc1Sc1ccc2c(/C=C/c3ccccn3)n[nH]c2c1 | 2.19 µM [falling, full curve] | 1.23 µM [falling, full curve]
24 | O=C(NCc1ccc(S(=O)(=O)c2cccc(C(F)(F)F)c2)cc1)c1cnc2[nH]ncc2c1 | 0.0155 µM [falling, full curve] | 0.0436 µM [falling, full curve]
25 | CC(=O)N(O)CCCCCNC(=O)CCC(=O)N(O)CCCCCNC(=O)CCC(=O)N(O)CCCCCN | 7.76 µM [falling, partial curve, poor fit] | 5.49 µM [falling, partial curve]
26 | C=CCc1cccc(/C=N/NC(=O)CN2CCN(Cc3ccccc3)CC2)c1O | 13.8 µM [falling, partial curve] | 6.92 µM [falling, partial curve]
27 | CC(=O)c1ccc2c(c1)c1cc(C(C)=O)ccc1n2CCNC(C)C | 0.871 µM [falling, full curve] | 1.1 µM [falling, full curve]
28 | CC1=C(CO)C(=O)O[C@@H]([C@@H](C)[C@H]2CC[C@H]3[C@@H]4C[C@H]5O[C@]56[C@@H](O)C=CC(=O)[C@]6(C)[C@H]4CC[C@]23C)C1 | 1.1 µM [falling, full curve] | 0.616 µM [falling, full curve]
29 | CCC[C@H](N[C@H]1CCc2cc(F)cc(F)c2C1)C(=O)Nc1cn(C(C)(C)CNCC(C)(C)C)cn1 | 24.5 µM [falling, single point] | 13.8 µM [falling, single point]
30 | NC(=O)c1cnc(N[C@@H]2CCCC[C@@H]2N)nc1Nc1cccc(-n2nccn2)c1 | 12.3 µM [falling, partial curve] | 19.5 µM [falling, partial curve]
31 | COc1ccc(COc2ccc(Cc3cnc(N)nc3N)cc2OC)cc1 | 15.5 µM [falling, single point] | 12.3 µM [falling, single point]
32 | C[C@H](NC(=O)/C(C#N)=C/c1cccc(Br)n1)c1ccccc1 | 15.5 µM [falling, single point] | 6.92 µM [falling, partial curve]
33 | CO[C@@H](C)Cn1c(=O)n(C)c2cnc3ccc(-c4cncc(C(C)(C)O)c4)cc3c21 | 0.389 µM [falling, full curve] | 0.436 µM [falling, full curve]
34 | CNC(=O)c1ccc(Nc2ncc(C(F)(F)F)c(NCc3nccnc3N(C)S(C)(=O)=O)n2)cc1 | 6.92 µM [falling, single point] | 2.19 µM [falling, full curve]
35 | Nc1nc(N)c2nc(-c3cccc(Cl)c3)c(N)nc2n1 | 6.16 µM [falling, partial curve] | 4.9 µM [falling, full curve]
36 | CCNCCS(=O)(=O)NC[C@@]1(c2ccccc2)SC(NC(=O)C(C)(C)C)=NN1C(=O)C(C)(C)C | 0.0062 µM [falling, full curve] | 0.0087 µM [falling, full curve]
37 | CCc1cnn2c(NCc3ccc[n+]([O-])c3)cc(N3CCCC[C@H]3CCO)nc12 | 0.0977 µM [falling, full curve] | 0.219 µM [falling, full curve]
38 | COC(=O)Nc1cc(Nc2cc(NC3CC3)c3ncc(C#N)n3n2)c(Cl)c(N2CCN(C)CC2)c1 | 1.55 µM [falling, full curve] | 0.616 µM [falling, full curve]
39 | O=C(O)Cc1cccc(OCCCN(Cc2cccc(C(F)(F)F)c2Cl)CC(c2ccccc2)c2ccccc2)c1 | 27.5 µM [falling, single point] | 27.5 µM [falling, single point]
40 | COc1ccc(CNc2nc(N(CCO)CCO)nc3c2ncn3C(C)C)cc1 | 4.9 µM [falling, full curve] | 6.92 µM [falling, partial curve]
41 | Cc1cc(Nc2ncc(Cl)c(Nc3ccccc3S(=O)(=O)C(C)C)n2)c(OC(C)C)cc1C1CCNCC1 | 6.16 µM [falling, partial curve] | 2.19 µM [falling, full curve]
42 | CN(C)CCOc1ccc(/C(=C(/CCCl)c2ccccc2)c2ccccc2)cc1 | 17.4 µM [falling, single point] | 15.5 µM [falling, single point]
